The source of these data is the supplement of paper PMC10126150.

Sequences with one replicate were seen in a single cluster, so their values are uncertain.

This series has as its system ATP. Description: switch fluorescence ratio, 500 uM ATP over buffer (Cy3 cluster intensity, sum of 5 cycles each) (fold (ratio)); higher = stronger signal-on switching upon ATP binding; sequences stand for … in TCGTCGGCAGCGTCAGATGTGTATAAGAGACAGTTTTTTTTTTTTTTTTTTTTTTTTT…TC. Conditions: aptamer strand: ATP DNA aptamer (quencher-CACCTGGGGGAGTATTGCGGAGGAAGG + anchor), 100 nM annealed; ATP concentration: 500 uM; one replicate. The method, boiled down: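 After annealing to 100 nM quencher-labelled ATP aptamer, Cy3-labelled switching-strand clusters on a modified Illumina MiSeq flow-cell were imaged in selection buffer. A second image followed after 15 min with 500 uM ATP at 22 °C, and five such buffer/ATP cycles were done, each separated by NaOH stripping and re-annealing. The fluorescence ratio, averaged per switch-domain sequence, is summed target-cycle over summed buffer-cycle Cy3 intensity per cluster, with clusters outside 100-1000 RFU excluded.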
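Also: ATP exposure 15 min at 22 °C before imaging.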

In the case of TTCGAGCGGT, the switch fluorescence ratio stood at 1.03.

Consider GCGGTTTAGC, for which the switch fluorescence ratio worked out at 0.99.

With TACTGAGGCT, the switch fluorescence ratio was 0.988.

As to TAGATGAGAT, the switch fluorescence ratio worked out at 1.01.

In the case of GCTGCTGTGT, the switch fluorescence ratio is 1.01.

Turning to GCCGGTTATG, the switch fluorescence ratio is 0.999.

Take TACGGTTAGT: the switch fluorescence ratio turned out to be 1.04.

With GTGTCGGTGG, the switch fluorescence ratio came to 1.

On to GAGTACACGC, for which the switch fluorescence ratio came out at 1.02.

Regarding ATCTGGCGGG, the switch fluorescence ratio came out at 0.997.

In the case of TTTAGGGCCA, the switch fluorescence ratio turned out to be 1.03.

On to TGGCTCAGGT, for which the switch fluorescence ratio is 1.08.

On to AGTTTTTCTT, for which the switch fluorescence ratio worked out at 1.01.

AAATCTAGGG: the switch fluorescence ratio is 1.01.

Turning to GAAATATACT, the switch fluorescence ratio came to 1.04.

With CCGCCTGTTT, the switch fluorescence ratio was determined as 1.13.

As to CCGACTAATT, the switch fluorescence ratio came out at 2.16.

Consider AAAACGGTCA, for which the switch fluorescence ratio was 1.06.

As for ACATCAACGG, the switch fluorescence ratio stood at 1.06.

On to CGCGGCGCGG, for which the switch fluorescence ratio worked out at 0.995.

Regarding GATCGTAGCG, the switch fluorescence ratio turned out to be 0.973.

For the sequence ACCGAGTTG, the switch fluorescence ratio was determined as 1.

TTTACCGGCA: the switch fluorescence ratio came to 0.955.

As to TAGCTGGACC, the switch fluorescence ratio worked out at 0.992.

On to ATGTTCGACG, for which the switch fluorescence ratio was 0.965.

Regarding AGGCACAGTT, the switch fluorescence ratio was found to be 0.957.

Take GGATGTCGCT: the switch fluorescence ratio was determined as 1.01.

Take ACTCGTACGG: the switch fluorescence ratio stood at 1.08.

As to TTCTTAGCGC, the switch fluorescence ratio was 1.02.

Regarding AGTCTTAGGC, the switch fluorescence ratio was determined as 1.02.

GGGGGGACC: the switch fluorescence ratio is 0.985.

Regarding TACGTCCTGA, the switch fluorescence ratio was 1.02.

Regarding CGTAGAAGTC, the switch fluorescence ratio stood at 1.03.

As to TCCGGATGAG, the switch fluorescence ratio came to 1.03.

On to AATCAGATTC, for which the switch fluorescence ratio was 1.

As for GGCACCAGCT, the switch fluorescence ratio was found to be 0.974.

Regarding AATCGATTCG, the switch fluorescence ratio is 1.

Take TGTTAGTCAT: the switch fluorescence ratio amounted to 0.981.

For TTTTATATTC, the switch fluorescence ratio was 0.963.

On to GCTCAGTACT, for which the switch fluorescence ratio is 1.05.

For ATTCTTCAGG, the switch fluorescence ratio worked out at 1.05.

CTCACCAATT: the switch fluorescence ratio worked out at 1.26.

Take AAGCGGTAGC: the switch fluorescence ratio came to 0.99.

Regarding CTGGATGGAA, the switch fluorescence ratio is 1.01.

Consider ATATCTGCTA, for which the switch fluorescence ratio came out at 1.01.

Regarding CATGATTCGG, the switch fluorescence ratio amounted to 0.943.

In the case of CGGTTAAC, the switch fluorescence ratio is 1.04.

Regarding CGAAAGGACA, the switch fluorescence ratio came out at 1.01.

For TTTCTTAGGA, the switch fluorescence ratio was 0.981.

In the case of GATGCCAGGC, the switch fluorescence ratio worked out at 0.987.

For the sequence ACAACTGAAT, the switch fluorescence ratio was found to be 1.02.

GCATAGCGTC: the switch fluorescence ratio amounted to 1.02.

Take CTCTTCGGGA: the switch fluorescence ratio is 1.05.

AAAGGTAGAC: the switch fluorescence ratio was 1.09.

With ATGCATATAC, the switch fluorescence ratio stood at 3.47.

As for CAAACTCGAC, the switch fluorescence ratio turned out to be 1.11.

With TTAGCCCTGT, the switch fluorescence ratio was determined as 0.989.

As to ACGAATCAGG, the switch fluorescence ratio came to 1.46.

As to ATATATAGA, the switch fluorescence ratio was determined as 0.952.

Consider CACTCGTCCT, for which the switch fluorescence ratio was 1.15.

For the sequence ACGTAGCTA, the switch fluorescence ratio is 2.67.

Regarding GCATTCGTCA, the switch fluorescence ratio came to 0.939.

On to TCGCTATGGA, for which the switch fluorescence ratio is 1.

For ATATGACCCA, the switch fluorescence ratio was found to be 0.978.

On to GTAAGAGTGG, for which the switch fluorescence ratio amounted to 0.942.

For the sequence GTTACGCCGG, the switch fluorescence ratio came to 1.01.

Take TTAATTGTGA: the switch fluorescence ratio is 0.955.

On to GATCAGACCA, for which the switch fluorescence ratio was determined as 1.02.

Consider TAACCCTGAG, for which the switch fluorescence ratio is 1.03.

For CGGCGTGCTG, the switch fluorescence ratio was determined as 0.933.

Turning to CAATCTAATT, the switch fluorescence ratio was determined as 0.901.

As to ACGTTTGATG, the switch fluorescence ratio worked out at 1.04.

With TTCCTTGTGA, the switch fluorescence ratio was 1.03.

As for TTAAGGGTAC, the switch fluorescence ratio stood at 1.06.

AAGGGGTCGA: the switch fluorescence ratio stood at 1.05.

On to AAGCAGGAAC, for which the switch fluorescence ratio turned out to be 1.14.

As for TGCTTAGAGA, the switch fluorescence ratio worked out at 0.954.

Take GGGTAAGGTA: the switch fluorescence ratio is 0.998.

Consider TATACGGAAC, for which the switch fluorescence ratio amounted to 1.33.

Consider CAAGAGGATT, for which the switch fluorescence ratio came to 1.02.

As to GACGACACAC, the switch fluorescence ratio came to 2.33.

As to AAGGTTGCTA, the switch fluorescence ratio came to 3.18.

For GTTGGGCAGG, the switch fluorescence ratio is 1.01.

Regarding GGAGAGCGGG, the switch fluorescence ratio worked out at 0.982.

With GGCTTTGTCA, the switch fluorescence ratio stood at 0.989.

For the sequence CGTCGCGTTC, the switch fluorescence ratio was determined as 1.06.

In the case of CAGGAGCATA, the switch fluorescence ratio was found to be 4.6.

As to CCCCTTGGTT, the switch fluorescence ratio was found to be 1.36.

For CACGTGATTC, the switch fluorescence ratio worked out at 1.

In the case of GAAATATTTG, the switch fluorescence ratio turned out to be 1.04.

Take GATGGGTTTA: the switch fluorescence ratio amounted to 0.992.

On to TAGTATAATG, for which the switch fluorescence ratio is 0.996.

For the sequence AGTGCAAA, the switch fluorescence ratio worked out at 1.

As to CCGTCGGGGA, the switch fluorescence ratio was found to be 1.07.

For GCAAAAGA, the switch fluorescence ratio stood at 1.02.

GATAGTTCTT: the switch fluorescence ratio is 1.06.

Take AGAAACTATT: the switch fluorescence ratio turned out to be 1.05.

Consider CATAAGCATC, for which the switch fluorescence ratio was 1.36.

For the sequence CAAGAGTAGC, the switch fluorescence ratio came to 0.932.

Turning to GGGTGATTTA, the switch fluorescence ratio came to 0.973.

Regarding AAGCGTAGGA, the switch fluorescence ratio worked out at 1.01.

TGGGCAACGC: the switch fluorescence ratio is 0.998.

For AGGAGTCAGC, the switch fluorescence ratio was 1.06.

Turning to CGTGGATATT, the switch fluorescence ratio is 1.04.

With TATTGTCCTG, the switch fluorescence ratio turned out to be 1.04.

Regarding CATACTTCTT, the switch fluorescence ratio came to 1.05.

On to TTATACTCCT, for which the switch fluorescence ratio was 1.29.

AATCGCGAGA: the switch fluorescence ratio was 0.977.

As to GCTTCGTACA, the switch fluorescence ratio came out at 1.09.

As for CGTCGAACTG, the switch fluorescence ratio was determined as 1.

Take GATGCGTTCT: the switch fluorescence ratio came out at 0.967.

Regarding GTGTTAGCA, the switch fluorescence ratio is 1.05.

On to CATCACAGT, for which the switch fluorescence ratio came out at 1.03.

For the sequence TAGCACCCTA, the switch fluorescence ratio was found to be 1.06.

Turning to CATAGTGGTG, the switch fluorescence ratio amounted to 0.998.

With GACCTTATTC, the switch fluorescence ratio came to 1.13.

As for GCGTGATCTA, the switch fluorescence ratio was determined as 0.98.

As for CACAAATGCT, the switch fluorescence ratio is 0.989.

As for TTTTGAGAT, the switch fluorescence ratio was found to be 1.03.

Regarding AAGTATTGTG, the switch fluorescence ratio amounted to 0.993.
